{
  "source": "paper PMC7164518",
  "about": "(Science (New York, N.y.), 2020)",
  "conditions": "mice, nebulized, 3 mg kg^−1",
  "data": [
    {"smiles": "CC(C)(C)OC(=O)Nc1cccn([C@@H](CC2CC2)C(=O)N[C@@H](C[C@@H]2CCNC2=O)C(=O)C(=O)NCc2ccccc2)c1=O", "note": "[Compound 13b]", "values": [
      {"measurement": "tolerability of inhalation", "value": "tolerated well and mice did not show any adverse effects"}
    ]}
  ]
}
